{
  "source": "paper PMC4336329",
  "about": "(PLoS ONE, 2015)",
  "note": "The campaign covered roughly 310,000 compounds. About 2,200 (0.71%) showed an effect of 50% or more. Effects have a minus sign here. Some of the results follow.",
  "data": [
    {"biological_target": "human ether-à-go-go-related gene (hERG) potassium channel (human, UniProt Q12809)", "sequence (Q12809 whole entry, looked up)": "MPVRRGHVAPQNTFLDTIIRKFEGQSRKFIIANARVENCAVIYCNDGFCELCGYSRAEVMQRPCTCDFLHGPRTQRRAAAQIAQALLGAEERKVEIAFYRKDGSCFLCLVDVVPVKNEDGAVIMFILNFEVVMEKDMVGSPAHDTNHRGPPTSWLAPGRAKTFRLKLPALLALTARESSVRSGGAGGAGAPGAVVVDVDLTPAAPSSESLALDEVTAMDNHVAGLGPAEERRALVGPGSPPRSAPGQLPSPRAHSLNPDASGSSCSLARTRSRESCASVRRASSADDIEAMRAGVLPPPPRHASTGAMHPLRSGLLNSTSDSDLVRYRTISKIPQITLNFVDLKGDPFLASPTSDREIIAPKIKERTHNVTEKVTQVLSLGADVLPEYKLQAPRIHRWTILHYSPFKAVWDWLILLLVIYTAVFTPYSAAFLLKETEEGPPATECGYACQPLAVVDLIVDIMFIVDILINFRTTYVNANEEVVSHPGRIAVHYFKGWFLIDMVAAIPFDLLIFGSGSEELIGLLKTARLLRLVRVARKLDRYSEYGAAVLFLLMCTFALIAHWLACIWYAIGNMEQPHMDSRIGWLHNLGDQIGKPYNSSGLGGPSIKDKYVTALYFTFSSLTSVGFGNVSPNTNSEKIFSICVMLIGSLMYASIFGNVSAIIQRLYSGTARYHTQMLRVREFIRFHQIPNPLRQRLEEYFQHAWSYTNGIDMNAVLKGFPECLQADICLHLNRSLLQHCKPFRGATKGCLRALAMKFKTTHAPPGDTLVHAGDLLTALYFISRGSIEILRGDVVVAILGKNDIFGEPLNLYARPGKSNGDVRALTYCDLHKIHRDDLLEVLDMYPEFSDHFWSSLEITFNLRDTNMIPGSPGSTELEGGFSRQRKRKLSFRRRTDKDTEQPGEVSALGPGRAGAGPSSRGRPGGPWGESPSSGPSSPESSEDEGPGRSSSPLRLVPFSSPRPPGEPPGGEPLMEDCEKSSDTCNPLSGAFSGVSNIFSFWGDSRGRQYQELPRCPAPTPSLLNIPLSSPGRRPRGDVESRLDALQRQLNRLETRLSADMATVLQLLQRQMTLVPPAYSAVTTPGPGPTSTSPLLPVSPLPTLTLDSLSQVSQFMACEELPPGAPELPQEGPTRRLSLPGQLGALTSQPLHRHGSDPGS", "test": "primary screen, population patch clamp on CHO cells stably expressing hERG", "units": {"hERG current change (%, negative = inhibition) at 1uM": "%"}, "values": [
      {"smiles": "Cc1ccc(C)c(NC(=S)N2CCN(c3ccccn3)CC2)c1", "hERG current change (%, negative = inhibition) at 1uM": 17.1},
      {"smiles": "CCOc1ccccc1NC(=O)CN1CCN(C(=O)C2CCCO2)CC1", "note": "(centres unmarked)", "hERG current change (%, negative = inhibition) at 1uM": 10.4},
      {"smiles": "N#Cc1sc(NCc2ccccc2)nc1Cl", "hERG current change (%, negative = inhibition) at 1uM": 2.35},
      {"smiles": "O=C(CCC(=O)Nc1cccnc1)Nc1cccnc1", "hERG current change (%, negative = inhibition) at 1uM": 15.2},
      {"smiles": "CCOC(=O)C1C(=O)NC(c2ccccc2)=NC1c1ccc(Br)cc1", "note": "(centres unmarked)", "hERG current change (%, negative = inhibition) at 1uM": 10.3},
      {"smiles": "CC(=O)/C=C\\c1ccccc1OC(=O)c1cc2ccccc2oc1=O", "hERG current change (%, negative = inhibition) at 1uM": 16.3},
      {"smiles": "O=Cc1cn(CCC(=O)O)nc1-c1cccc(Cl)c1", "hERG current change (%, negative = inhibition) at 1uM": 5.84},
      {"smiles": "Cn1cc(Br)c(C(=O)NNC(=O)c2ccc(Br)cc2)n1", "hERG current change (%, negative = inhibition) at 1uM": 11.5},
      {"smiles": "Cn1nnnc1SCC(=O)Nc1ccccc1Cl", "hERG current change (%, negative = inhibition) at 1uM": 11.4},
      {"smiles": "O=C(C[n+]1ccccc1)N/N=C/c1ccccc1[N+](=O)[O-].[Cl-]", "hERG current change (%, negative = inhibition) at 1uM": 31.2},
      {"smiles": "C=C1CCC(O)C2(C)CCC3C(C)C(=O)OC3C12O", "note": "(centres unmarked)", "hERG current change (%, negative = inhibition) at 1uM": 11.3},
      {"smiles": "Cc1cc(NC(=O)CCc2ccc(S(=O)(=O)N3CCOCC3)cc2)n(-c2ccccc2)n1", "hERG current change (%, negative = inhibition) at 1uM": -7.66},
      {"smiles": "COc1ccc(NC(=O)Cc2c[nH]c3ccccc23)cc1S(=O)(=O)N1CCOCC1", "hERG current change (%, negative = inhibition) at 1uM": 6.21},
      {"smiles": "COc1cc(OC)cc(C(=O)NC(=S)N2C[C@H]3C[C@H](C2)c2cccc(=O)n2C3)c1", "hERG current change (%, negative = inhibition) at 1uM": 13.9},
      {"smiles": "COc1ccc(NC2CCCN(C(=O)c3csc(C(C)C)n3)C2)cc1", "note": "(centres unmarked)", "hERG current change (%, negative = inhibition) at 1uM": 13.5},
      {"smiles": "NS(=O)(=O)c1ccc(CCNS(=O)(=O)c2cccc(C(=O)O)c2)cc1", "hERG current change (%, negative = inhibition) at 1uM": 14.6},
      {"smiles": "CCOc1ccc(-n2ccnc(SCC(=O)Nc3cccc(OC)c3)c2=O)cc1", "hERG current change (%, negative = inhibition) at 1uM": 5},
      {"smiles": "O=C(OCc1nnc(-c2ccccc2)o1)c1ccc([N+](=O)[O-])o1", "hERG current change (%, negative = inhibition) at 1uM": 16.5},
      {"smiles": "CCC(=O)Nc1nc2ccc(NC(=O)COc3ccccc3)cc2s1", "hERG current change (%, negative = inhibition) at 1uM": 21.3},
      {"smiles": "COc1ccc(/C=N/N=C/c2c[nH]c(=O)c(C#N)c2Nc2ccccc2)cc1", "hERG current change (%, negative = inhibition) at 1uM": 18.5},
      {"smiles": "NC(=S)NNC(=O)c1ccccc1Cl", "hERG current change (%, negative = inhibition) at 1uM": 11.1},
      {"smiles": "CCn1c(SCC(=O)Nc2ccc3c(c2)OCCO3)nnc1-c1ccccn1", "hERG current change (%, negative = inhibition) at 1uM": -1.16},
      {"smiles": "COC(=O)[C@@H]1[C@@H](C#N)C2(c3ccccc3-c3ccccc32)N(c2ccc(Cl)cc2)N1C#N", "hERG current change (%, negative = inhibition) at 1uM": 10.7},
      {"smiles": "O=C(CCN1CCN(c2ccccc2)CC1)Nc1ccc(OCc2ccccc2)cc1", "hERG current change (%, negative = inhibition) at 1uM": 6.26},
      {"smiles": "CC(C)c1cc(C(=O)N2CCCC(Nc3ccc(F)cc3)C2)nc(N)n1", "note": "(centres unmarked)", "hERG current change (%, negative = inhibition) at 1uM": 12.7},
      {"smiles": "Cc1ccc(S(=O)(=O)N2CCc3ccccc3C2)cc1C", "hERG current change (%, negative = inhibition) at 1uM": 14.3},
      {"smiles": "Cc1ccc(-c2nc3ccccc3c(=O)n2-c2cccc(C)n2)cc1", "hERG current change (%, negative = inhibition) at 1uM": 8.53},
      {"smiles": "CCOC(=O)c1c(S(=O)(=O)N2CCN(C3CCCCC3)CC2)c(C)n(C)c1C", "hERG current change (%, negative = inhibition) at 1uM": -8.5},
      {"smiles": "Cc1ccc(NC(=O)C2CCN(S(=O)(=O)c3c(C)[nH]c(=O)[nH]c3=O)CC2)cc1", "hERG current change (%, negative = inhibition) at 1uM": 10.7},
      {"smiles": "Cc1nn(Cc2ccc(F)cc2)c(C)c1NC(=O)C1c2ccccc2Oc2ccccc21", "hERG current change (%, negative = inhibition) at 1uM": 15.3},
      {"smiles": "C=CCN1C(=O)C(CC(=O)O)SC1=Nc1cccc([N+](=O)[O-])c1", "note": "(centres unmarked)", "hERG current change (%, negative = inhibition) at 1uM": 8.2},
      {"smiles": "COC(=O)c1nn(-c2ccccc2)c(=O)cc1Sc1ccc(Cl)cc1", "hERG current change (%, negative = inhibition) at 1uM": 14.8},
      {"smiles": "Cc1cccc(NC(=O)NCc2ccc3c(c2)OCO3)c1C", "hERG current change (%, negative = inhibition) at 1uM": 13.2},
      {"smiles": "COCCCNC(=O)C(=O)Nc1cc2c3c(c1)CCC(=O)N3CCC2", "hERG current change (%, negative = inhibition) at 1uM": 15.9},
      {"smiles": "COC(=O)c1ccc(/C=C(\\C#N)c2ccccn2)cc1", "hERG current change (%, negative = inhibition) at 1uM": 12.6},
      {"smiles": "COc1ccc(C(=O)Nc2ccc(S(=O)(=O)Nc3nccnc3OC)cc2)cc1OC", "hERG current change (%, negative = inhibition) at 1uM": 7.09},
      {"smiles": "S=C(NCc1ccncc1)Nc1cccc(Cl)c1", "hERG current change (%, negative = inhibition) at 1uM": 3.17},
      {"smiles": "Cc1ccc(C)c(NC(=O)CSc2ccc(-c3ccco3)nn2)c1", "hERG current change (%, negative = inhibition) at 1uM": 37.8},
      {"smiles": "CC(C)(C)c1ccc(OCC(=O)N2CCN(c3ccccn3)CC2)cc1", "hERG current change (%, negative = inhibition) at 1uM": -2.43},
      {"smiles": "COc1ccccc1-c1nc(SCC(=O)Nc2ccccc2F)n[nH]1", "hERG current change (%, negative = inhibition) at 1uM": 8.65},
      {"smiles": "COc1cc(C2Nc3ccc4ccccc4c3C3=C2C(=O)CC(C)(C)C3)ccc1OCC(=O)O", "note": "(centres unmarked)", "hERG current change (%, negative = inhibition) at 1uM": 17.5},
      {"smiles": "COc1cccc(NC(=O)C(=O)c2cn(CC(=O)N3CCOCC3)c3ccccc23)c1", "hERG current change (%, negative = inhibition) at 1uM": 2.94},
      {"smiles": "Cc1cc(C)n(CCN(C)C(=O)C2CCC(=O)N(CCN3CCOCC3)C2)n1", "note": "(centres unmarked)", "hERG current change (%, negative = inhibition) at 1uM": 16.1},
      {"smiles": "CCOc1c(N2CCOCC2)c(=O)c1=O", "hERG current change (%, negative = inhibition) at 1uM": 12.8}
    ]}
  ]
}
